Where “and” joins values, the source holds several entries; their conditions need not be identical. Equal entries are not always repeated. The whole screen tested about 48,000 compounds, of which about 1,200 (2.5%) were called active. Inconclusive results (about 2%) are left out.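 How the source made its calls: active means activation of at least 60% and not above a set upper limit (about 1 call in 100 departs from these limits); inconclusive means activation of 40% to 60%, or above that upper limit; inactive means activation under 40%.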 This is one part of the list.
target: Probable G-protein coupled receptor 32 (Homo sapiens) (UniProt O75388); assay: qHTS for Agonists of Human Resolvin D1 Receptor DRV1; settings: CHO-K1 GPR32 beta-arrestin PathHunter luminescence, 90 min; at 76.9 µM; active compounds read high; zero percent set by DMSO-only wells
Method in brief: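 Using DMSO wells as EC0, agonist-induced signal was taken as chemiluminescence from beta-Gal reconstituted upon beta-arrestin recruitment to GPR32 in CHO-K1 cells after 90 min compound treatment.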

UniProt O75388, sequence (O75388 whole entry, looked up): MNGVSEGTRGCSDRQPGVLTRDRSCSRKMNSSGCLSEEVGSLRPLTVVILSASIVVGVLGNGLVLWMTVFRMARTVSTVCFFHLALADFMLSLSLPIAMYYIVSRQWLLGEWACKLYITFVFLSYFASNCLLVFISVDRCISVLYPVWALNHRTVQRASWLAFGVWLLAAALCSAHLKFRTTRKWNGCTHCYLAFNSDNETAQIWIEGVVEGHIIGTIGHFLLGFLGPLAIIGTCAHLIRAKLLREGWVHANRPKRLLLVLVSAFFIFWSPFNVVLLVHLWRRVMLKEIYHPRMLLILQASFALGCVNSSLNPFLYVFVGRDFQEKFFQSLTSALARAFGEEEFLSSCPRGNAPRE

Structure (SMILES)	activation
CCCN1CCc2nc(N3CCN(C)CC3)ncc2C1	inactive: -0.0535%
COc1ccc(-c2noc(CSc3nc4ccccc4[nH]3)n2)cc1OC	active: 67%
CCc1cccc(C)c1NS(=O)(=O)c1ccc2c(c1)CC(C)N2C(=O)C1CC1 (stereo unspecified)	inactive: 2.62%
Cc1cccc(Cn2c(=O)n(-c3ccccc3C)c(=O)c3c2c2cc(C)ccc2n3C)c1	inactive: 17.7%
Fc1cccc(CSc2ccc(-c3cccs3)nn2)c1	inactive: -11.5%
COc1ccc(S(=O)(=O)NCCc2csc3nc(-c4ccccc4)nn23)cc1OC	inactive: 1.2%
Cc1ccc2oc3c(c(=O)c2c1)C(c1ccc(O)cc1)N(c1nc(C)c(C)s1)C3=O (stereo unspecified)	inactive: -3.84%
[Cl][In]([Cl])[Cl]	inactive: 33%
CCC(=O)N1c2ccccc2CC1C(=O)NCc1cc(Br)ccc1OC (stereo unspecified)	inactive: 3.94%
COc1ccccc1C(=O)N(c1ccc(C)cc1)S(=O)(=O)c1ccc(Cl)cc1	inactive: -5.43%
Cc1csc2nc(COC(=O)c3ccc(NC(=O)C(C)Oc4ccccc4)cc3)cc(=O)n12 (stereo unspecified)	inactive: -11.5%
Cc1ccc(CNc2nc3ccccc3n3cnnc23)cc1	inactive: -7.12%
CCC(=O)Nc1nnc(S(=O)(=O)N2c3ccccc3CC2C)s1 (stereo unspecified)	inactive: -0.767%
CC(C)Cc1ccc(C(C)C(=O)O)cc1 (stereo unspecified)	inactive: 23.6% and inactive: -2.15%
CCCC1=Nc2cc(C(=O)N3CCC(C(=O)OCC)CC3)ccc2Sc2ccccc21	inactive: 3.57%
COc1ccc(NC(=O)c2cnc(N3CCCC3)nc2)cc1OC	inactive: -1.38%
COc1ccc(CN2CCN(C(c3ccc(F)cc3)c3ccc(F)cc3)CC2)c(OC)c1OC	active: 78.3%
O=C(NCc1cccc(F)c1)c1ccccc1NC(=O)c1nsc2ccccc12	inactive: -13.4%
Cc1cc(C)c2oc(-c3cccc(NC(=O)c4ccc(-c5cccc([N+](=O)[O-])c5)o4)c3)nc2c1	inactive: 4.49%
Cc1cccc(NC(=O)C2CCCN2S(=O)(=O)c2ccc3c(c2)n(C)c(=O)c(=O)n3C)c1 (stereo unspecified)	inactive: -9.25%
CC(=O)c1cccc(NC(=O)C2=CC(c3ccc4c(c3)OCO4)=NS(=O)(=O)N2C)c1	inactive: -16.7%
Cc1ccc(CNC(=O)c2ccc(CSCc3ccccc3Cl)o2)cc1	inactive: -24.1%

Structure (SMILES)	activation
COc1ccccc1CNC(=O)CCC1N=C2c3ccccc3N=C(SCC(N)=O)N2C1=O (stereo unspecified)	inactive: -21.9%
CC1CCCCN1CCCNC(=O)c1[nH]c2ccccc2c1Sc1ccc(Cl)cc1 (stereo unspecified)	inactive: -21.9%
Fc1ccccc1-n1ncc2c1ncn1nc(-c3ccccc3Cl)nc21	inactive: -9.15%
Cc1cccc(CNC(=O)C(=O)Nc2ccccc2C)c1	inactive: -2.68%
CC(=O)N1CCc2cc(CNC(=O)Nc3cc(Cl)ccc3C)ccc21	inactive: 1.81%
COc1ccc(Cn2c(CCC(=O)Nc3cccc(OC)c3)nc3cccnc32)cc1	inactive: -10.9%
CCc1ccc(CNC(=O)C2CCN(c3nc4ccccc4nc3C(F)(F)F)CC2)cc1	inactive: -3.92%
Cc1cccc(C)c1NC(=O)CSc1nc2ncccc2o1	inactive: 2.07%
Cc1ccc(S(=O)(=O)NCC(c2ccc(N(C)C)cc2)N2CCc3ccccc32)cc1C (stereo unspecified)	inactive: -26.7%
CCN1C(=O)c2ccccc2Sc2ccc(NC(=O)Nc3ccccc3OC)cc21	inactive: -4.17%
Cc1ccc(NC(=O)c2c(NC(=O)Cc3ccccc3)sc3c2CCC3)cc1	inactive: 2.88%
COC(=O)Cc1c(C)c2cc3c(c(C)c2oc1=O)OCN(CCc1ccccc1F)C3	inactive: 2.39%
COc1ccc(NC(=O)Cn2c(=O)n(Cc3ccco3)c(=O)c3cc(OC)c(OC)cc32)cc1	inactive: -8.28%
CN(C)c1ccc(-c2nc3cnccn3c2Nc2cccc(C(F)(F)F)c2)cc1	inactive: -4.85%
COc1cccc(CNc2nccn(-c3cc(C)cc(C)c3)c2=O)c1	active: 63.1%
COc1ccc2cc(-c3nc(Cl)c4c5c(sc4n3)CCCC5)c(=O)oc2c1	inactive: 10.2%
Cc1ccc(-n2ncc(C(=O)NCCN3CCOCC3)c2C2CCN(C(=O)OC(C)(C)C)CC2)c(C)c1	inactive: -6.86%
Cc1cc2c(cc1S(=O)(=O)CCC(=O)N1CCCC(C)C1)OCC(=O)N2 (stereo unspecified)	inactive: -3.58%
CCCCN(CCCNC(=O)c1ccc(Sc2ccc(Cl)cc2)c(NC(C)=O)c1)c1ccccc1	inactive: -28.2%
Cc1ccc(NC(=O)CSC2=Nc3ccccc3C3=NC(Cc4ccccc4)C(=O)N23)cc1C (stereo unspecified)	inactive: -20.3%
Cc1c(Cl)cccc1NC(=O)Cn1cc(C(=O)C2CCCCC2)c2ccccc21	inactive: 24.8%
CCSc1ncc(Cl)c(C(=O)Nc2ccc(S(=O)(=O)N3CCC(C)CC3)cc2)n1	inactive: -0.606%

Structure (SMILES)	activation
Clc1ccc2nc(NCc3ccccc3)c3nncn3c2c1	inactive: -6.88%
O=C(O)c1cccnc1C(=O)O	inactive: -4.75%
COc1ccc(/C=C\C(=O)NC2CC(=O)N(c3ccc(F)cc3)C2)cc1OC (stereo unspecified)	inactive: 4.05%
Cc1c(NC(=O)CC(C)C)cccc1-c1nc2cccnc2s1	inactive: -3.97%
COc1ccccc1OC(=O)Oc1ccccc1OC	inactive: -52.2%
O=C(CSc1cn(CCNC(=O)c2ccccc2F)c2ccccc12)Nc1ccccc1F	inactive: 31.4%
COc1cccc(-n2c(SCC(=O)Nc3cccc(Cl)c3)nc3c(oc4ccccc43)c2=O)c1	inactive: 1.99%
CCOc1ccccc1CNC(=O)c1ccc(-c2nc(CSc3ccc(C)cc3)c(C)o2)cc1	inactive: 1.48%
O=C(NCc1ccc(F)cc1)C1CCCN(c2ncnc3onc(-c4ccc(F)cc4)c23)C1 (stereo unspecified)	inactive: -15.2%
COc1ccc(-n2c(=O)c3c(C)c(C)sc3n(CC(=O)NCc3ccc(C)cc3)c2=O)c(OC)c1	inactive: -10%
CS(=O)(=O)c1oc(-c2ccc(F)cc2)nc1S(=O)(=O)c1ccc(Cl)cc1	inactive: 2.91%
O=C(CSc1nc2c(sc3ccccc32)c(=O)n1CCCC(=O)NC1CCCC1)Nc1ccc(F)cc1	inactive: -17.4%
COc1ccc(Cl)cc1NC(=O)CSC1=Nc2ccccc2C2=NC(CC(=O)NC3CCCCC3)C(=O)N12 (stereo unspecified)	inactive: -4.55%
CCOC(=O)CNC(=O)c1ccc(-c2nn(C)c(=O)c3ccccc23)cc1	inactive: 41.9%
CC(=O)Nc1ccc(C(=O)O)cc1	inactive: 11%
Cc1ccc(Nc2c(-c3ccsc3)nc3cccc(C)n23)cc1	inactive: -29.6%
CCc1ccc(NCc2cc3ccc(OC)cc3n(CC(=O)Nc3ccc(C(C)C)cc3)c2=O)cc1	inactive: -34%
Cc1ccc(NC(=O)c2ccc3oc(=O)c(S(=O)(=O)c4ccccc4)cc3c2)cc1C	inactive: -0.823%
CC(NC(=O)C1CCN(C(=O)c2ccc(-n3ccc4ccccc43)s2)CC1)c1ccccc1 (stereo unspecified)	inactive: -10.7%
COc1ccccc1NC(=O)C1=C(C)Nc2nc(SCc3ccc(Cl)cc3)nn2C1c1ccccc1Cl (stereo unspecified)	inactive: -4.66%
Cc1ccc(NC(=O)Cn2nnc(-c3nc(-c4ccncc4)no3)c2N)c(C)c1	inactive: -8.77%
CCOC(=O)C1CCN(C(=O)CN2c3ccc(C(C)C)cc3-c3ccccc3S2(=O)=O)CC1	inactive: -16%

Structure (SMILES)	activation
CCOc1ccc(OC(=O)c2cn(-c3cccc(OC)c3)c(=O)c3ccccc23)cc1	inactive: -14.5%
COc1cc(C2NC(=O)N(C)C3=C2C(=O)N(c2cccc(Cl)c2)C3)ccc1O (stereo unspecified)	inactive: 8.89%
CCOC(=O)c1c(NC(C)=O)c2c3c(sc2n1Cc1ccc(Cl)cc1)CCCC3	inactive: -21.5%
Cc1cccc2sc(N3CCN(C(=O)CS(=O)(=O)c4ccc(F)cc4)CC3)nc12	inactive: 5.94%
O=C(CSc1nncn2c1cc1occc12)Nc1ccccc1C(F)(F)F	inactive: -18.4%
CCOC(=O)C1CCCN(S(=O)(=O)c2ccc3c(c2)CCN3C(=O)CC)C1 (stereo unspecified)	inactive: 10.2%
CCc1ccccc1NC(=O)CN(c1cccc(C)c1C)S(C)(=O)=O	inactive: 18.7%
N#Cc1cccc(Nc2ncnc3c2cnn3-c2cccc(Cl)c2)c1	inactive: -0.53%
Cc1ccc(Cl)cc1-n1ncc2c(NC3CCCCC3)ncnc21	active: 67.6%
Cc1ccc(C(=O)O)cc1-n1c(C)ccc1-c1ccccc1	inactive: 3.75%
CCOC(=O)c1c(C)[nH]c(CCC(=O)Nc2c(Cl)cc(OC)cc2OC)c1C	inactive: -17.5%
COc1cc(OC)c2c(C)c(CC(=O)NCCc3ccccc3OC)c(=O)oc2c1	inactive: 6.6%
CCc1ccc(S(=O)(=O)c2cnc3ccc(OC)cc3c2N2CCCC(C)C2)cc1 (stereo unspecified)	inactive: -19.8%
Cc1cc(C(=O)N2CCN(c3ccc(F)cc3)CC2)c2c(C)nn(-c3cccc(Cl)c3C)c2n1	inactive: -7.64%
CCCc1nc2nc(C)c(NS(=O)(=O)c3ccc(F)cc3)c(=O)n2[nH]1	inactive: 2.43%
COc1ccc(CNC(=O)Cn2c(=O)nc(-c3ccccc3F)c3cc(Cl)ccc32)cc1OC	inactive: -0.653%
COC(=O)c1cccc(Nc2c(-c3ccc(OC)cc3)nc3nc[nH]n23)c1	inactive: -22.5%
CCOC(=O)c1ccc(NC(=O)C(CC)Sc2nnc3c4ccccc4n(C)c3n2)cc1 (stereo unspecified)	inactive: -9.5%
Cc1ccc(C)c(NC(=O)Cn2nnc(C(=O)NCCc3ccccc3)c2N)c1	inactive: -3%
Cc1cc(C)c(NC(=O)Cn2c(=O)n(Cc3ccc4c(c3)OCO4)c(=O)c3ccccc32)c(C)c1	inactive: -16%

Reference: PubChem BioAssay AID1346428 (National Center for Advancing Translational Sciences (NCATS), 2018)
